This is one part of the list. Shown are side measurements of this screen, not its main read-out; they come without a call.
Assays:
Assay in all cases: Primary Screen for Target Class Profiling of Small Molecule Inhibitors of Methyltransferases
[1] = target: Glycine N-methyltransferase (Homo sapiens) (UniProt Q14749); conditions: purified enzyme, MTase-Glo SAH luminescence; measured here: GNMT inhibition; at 40 µM; stronger effect = lower value
Procedure, shortened: (§1)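 Each enzyme was reacted with SAM and its substrate, with compounds tested once at 40 uM; SAH formed was read by MTase-Glo luminescence.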

[2] = target: Guanidinoacetate N-methyltransferase (Homo sapiens) (UniProt Q14353); conditions: purified enzyme, MTase-Glo SAH luminescence; measured here: GAMT inhibition; at 40 µM; stronger effect = lower value
Procedure, shortened: as §1

[3] = target: Histamine N-methyltransferase (Homo sapiens) (UniProt P50135); conditions: purified enzyme, MTase-Glo SAH luminescence; measured here: HNMT inhibition; at 40 µM; stronger effect = lower value
Procedure, shortened: as §1

[4] = target: Nicotinamide N-methyltransferase (Homo sapiens) (UniProt P40261); conditions: purified enzyme, MTase-Glo SAH luminescence; measured here: NNMT inhibition; at 40 µM; stronger effect = lower value
Procedure, shortened: as §1

[5] = target: Phenylethanolamine N-methyltransferase (Homo sapiens) (UniProt P11086); conditions: purified enzyme, MTase-Glo SAH luminescence; measured here: PNMT inhibition; at 40 µM; stronger effect = lower value
Procedure, shortened: as §1
% is set by controls: 0 for no effect and ±100 for the full control effect.

Row | SMILES | activity change, negative = inhibition [1] | activity change, negative = inhibition [2] | activity change, negative = inhibition [3] | activity change, negative = inhibition [4] | activity change, negative = inhibition [5]
1 | C[C@@H](O)[C@H]1C(=O)N2C(C(=O)O)=C(SCCN=CN)C[C@H]12 | -19.6% | 13.4% | 1.93% | 0.634% | 9.41%
2 | CCCN1CCN(CCCN2C(=O)c3cc4occc4n3CC2(C)C(=O)NC2CCCCC2)CC1 (stereo not given) | 6.12% | 1.55% | 4.47% | 9.74% | 3.84%
3 | COc1ccc(CNC(=O)c2ccc3c(=O)nc4c(-c5ccccc5F)n[nH]n4c3c2)cc1 | -15.4% | 0% | 4.52% | 4.08% | -0.171%
4 | C=Cc1ccc(Cn2nc3n(CCC)c(=O)c4ccc(C(=O)NC(C)C)cc4n3c2=O)cc1 | -3.25% | 0% | 1.18% | -7.25% | 1.02%
5 | C=Cc1ccc(CSc2nnc3n(CCC(C)C)c(=O)c4ccccc4n23)cc1 | 0.418% | 0% | 9.05% | -2.84% | 3.56%
6 | CCc1cc2c(cc3n2CC(C)(C(=O)NC2CCCCC2)N(Cc2ccc(Cl)cc2)C3=O)s1 (stereo not given) | -2.56% | 6.01% | 0.422% | -4.81% | -3.98%
7 | CN1C(=O)c2cc(C(=O)NC3CCCCCC3)nn2CC1(C)C(=O)NC1CCCCCC1 (stereo not given) | -0.078% | 0.252% | -4.91% | 2.2% | 1.02%
8 | COc1ccccc1CNC(=O)C1(C)Cn2c(cc3ccccc32)C(=O)N1CCC1=CCCCC1 (stereo not given) | 5.29% | 3.9% | 9.02% | 5.95% | 2.19%
9 | Cc1cc2c(cc3n2CC(C)(C(=O)NC2CCCCCCC2)N(Cc2ccco2)C3=O)o1 (stereo not given) | -7.06% | -12.6% | -4.53% | -32.1% | -13.8%
10 | O=C1CN(Cc2c(F)cccc2Cl)S(=O)(=O)c2ccccc2N1Cc1cccc(F)c1 | 1.49% | 3.92% | -1.17% | -6.84% | -2.63%
11 | COc1ccccc1CNC(=O)c1ncn2c1C(=O)N(C1CC1)C(C)(C(=O)NCc1ccc(C)cc1)C2 (stereo not given) | 4.82% | 4.36% | 5.62% | 6.34% | 2.88%
12 | O=C(NCCc1csc(-c2cnccn2)n1)C1CC2(CCNCC2)CN1 (stereo not given) | -2.21% | 1.17% | -4.46% | -8.78% | -5.36%
13 | CC(C(=O)NCCc1ccc(Cl)cc1)n1ccc2cc(S(=O)(=O)N3CCCC3)ccc21 (stereo not given) | 1.71% | 2.14% | -0.712% | 0.891% | 0.739%
14 | CC(C)(O)c1cc2nc(-c3cnc(N)nc3)nc(N3CCOCC3)c2s1 | 1.9% | 4.02% | 3.84% | -18.6% | -2.22%
